The whole screen tested about 330,000 compounds, of which about 300 (0.091%) were called active. The inconclusive results got no clear call from the source; some entries with a clear call stand among them for comparison. The call rests on the fitted dose curve; in most records, active means well fitted inhibition curve with a large enough effect; inconclusive means small, poorly fitted or top-dose-only effect, or effect the other way, or another doubt; inactive means no such curve, though single readings can be large or run the other way. Potencies of inconclusive entries are left out as doubtful fits.
target: Lysosomal acid glucosylceramidase (Homo sapiens) (UniProt P04062); experiment: qHTS Assay for Inhibitors and Activators of N370S glucocerebrosidase as a Potential Chaperone Treatment of Gaucher Disease; settings: N370S GC spleen homogenate, 4MU-glucoside fluorescence; activity change, negative = inhibition: at 59.4 µM (top of the series) unless noted;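 on activity change, negative = inhibition: 0% = full enzyme activity and -100% = no enzyme basal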
Potency means the concentration at half of the fitted maximal effect.

SMILES | activity change, negative = inhibition | Potency
CC(C)n1nnc2ccccc2c1=O | inconclusive: 34.1% [activator] | 
CC1CCCCN1C(=O)Cn1c(=O)oc2cc(S(=O)(=O)N3CCCC3)ccc21 (stereo not drawn) |  | inconclusive [activator, full curve, poor fit]
C=CCNc1nc2ccccc2nc1NS(=O)(=O)c1ccc(OC)cc1 |  | inconclusive [activator, single point]
C=CCN1C(=O)c2ccc(C(=O)N(C)CC(=O)Nc3ccccc3Br)cc2C1=O |  | inactive
Fc1ccccc1C(c1nnnn1Cc1ccc2c(c1)OCO2)N1CCN(Cc2ccccc2)CC1 (stereo not drawn) |  | inconclusive [inhibitor, single point]
CNC(=O)c1sc2nc(-c3ccc(OC)cc3)cn2c1C |  | inconclusive [inhibitor, partial curve]
CC(OC1=CC(=O)CCC1)C(=O)c1ccccc1 (stereo not drawn) |  | inactive
Cc1nnc(SCC(=O)c2ccc(Cl)cc2)n(N)c1=O |  | inconclusive [inhibitor, single point]
CCOC(=O)C(C(=O)OCC)N(C#N)c1nc(N(C)C)nc(N(C)C)n1 |  | inconclusive [activator, partial curve, poor fit]
CCCn1c(N)c(N(CCOC)C(=O)COC(=O)c2ccccc2NCCO)c(=O)[nH]c1=O |  | inconclusive [activator, partial curve]
Cc1cc(=O)oc2cc(OCC#N)ccc12 |  | inconclusive [activator, partial curve]
C=C(C)C(=O)Nc1cccc(C2=NOC3(C2)C[C@@H](C(N)=O)N(C(=O)C(=C)C)C3)c1 (stereo partly drawn) |  | inactive
Cc1cccc(NC(=S)N(CCCN2CCOCC2)Cc2cn(C)c3ccccc23)c1 |  | active: 7.94 µM
CCCCOC(=O)Nc1ccc(C(C)C)cc1 |  | inactive
CC(C)OC(=O)/C(C#N)=C/c1cn(Cc2ccccc2)c2ccccc12 |  | inconclusive [activator, partial curve]
CC(=O)CSc1nnc2c3ccccc3nc(C(C)(C)C)n12 |  | inconclusive [activator, single point]
CC(=O)Nn1cc2c(c1-c1ccccc1)c(=O)n(C)c(=O)n2C |  | inactive
O=C(OCCN(C1=NS(=O)(=O)c2ccccc21)c1ccccc1Cl)c1ccc(Cl)cc1 |  | inconclusive [activator, partial curve]
COc1ccccc1-c1nc(COc2ccc(Cl)cc2Cl)no1 |  | inactive
O=C(Nc1cccc(-c2cscn2)c1)C1CCN(Cc2ccc(CO)o2)CC1 |  | inconclusive [inhibitor, single point]
COc1cc(/C=N/NC(=S)NC2CC3CC2C2C=CCC32)ccc1O (stereo not drawn) |  | inconclusive [activator, partial curve]
Cc1cc2cc3c(=O)[nH]c(=O)[nH]c3nc2cc1C |  | inconclusive [activator, single point]

SMILES | activity change, negative = inhibition | Potency
Cc1cccc(C)c1NC(=S)Nc1ccccc1C(=O)NCc1ccco1 |  | inactive
CCN1CCSc2ccc(C(=O)NCc3cccc(F)c3)cc21 |  | inconclusive [activator, partial curve]
CC1Sc2ccc(S(=O)(=O)CCC(=O)N3CCc4ccccc43)cc2NC1=O (stereo not drawn) |  | inconclusive [inhibitor, full curve, poor fit]
O=C(NCc1ccccc1)C1=C[C@H](C2CCCCC2)C[C@H](OCc2ccc(CO)cc2)O1 |  | inconclusive [activator, full curve]
COC1[C@@H](OC)C[C@H](C)[C@@H](OC)C2=CC(=O)C=C(NC(=O)/C(C)=C/C=C\[C@H](OC)[C@@H](OC(N)=O)/C(C)=C/[C@@H]1C)C2=O (stereo partly drawn) |  | inconclusive [inhibitor, single point]
COc1cccc(-c2ccc(NC(=O)C3CCCN(Cc4cc(C)[nH]n4)C3)cc2)c1 (stereo not drawn) |  | inconclusive [inhibitor, single point]
C1CCC[C@H]2CCCN3CC[C@H](CCCCCC[C@@H]4CCCN5CC[C@H](CC1)OC45)OC23 |  | inactive
CNC(=S)N(CCc1c(C)[nH]c2ccc(Cl)cc12)Cc1cccnc1 |  | inconclusive [inhibitor, partial curve]
CCc1ccc(NC(=O)CSc2nc(CSc3ccc(C)cc3)cc(=O)[nH]2)cc1 |  | inconclusive [activator, full curve]
COc1ccc(C)cc1NC(=O)CCNC(=O)Cn1cnc2ccccc2c1=O |  | inactive
CC(=O)Nc1ccc(S(=O)(=O)NC2=C(N3CCN(c4ccc(F)cc4)CC3)C(=O)c3ccccc3C2=O)cc1 |  | inactive
Cc1cc(SCC(=O)c2ccccc2)n2ncc(-c3ccccc3)c2n1 |  | inconclusive [activator, partial curve, poor fit]
NC(=O)C1CCN(C2=C(NS(=O)(=O)c3ccccc3)C(=O)c3ccccc3C2=O)CC1 |  | inconclusive [inhibitor, full curve, poor fit]
Cn1c(SCc2ccccc2[N+](=O)[O-])nnc1-c1cccnc1 |  | inactive
CC(C)c1ccc(NC(=S)Nc2cccc3ccccc23)cc1 |  | inactive
Cc1nc2ccccc2nc1SCC(=O)c1ccccc1 |  | inconclusive [activator, partial curve]
O=C(c1ccc(Br)cc1)N1CCC(C(=O)N2CCN(c3ccccc3)CC2)CC1 |  | inactive
Cc1ccc(S(=O)(=O)N[C@H]2COC(=O)C/C=C\[C@H](C)[C@@H](NS(=O)(=O)c3ccc(C)cc3)COC(=O)C/C=C\[C@@H]2C)cc1 | inactive: 6.13% [at 12.8 µM] | 
Cc1sc2ncn3ncnc3c2c1C | inconclusive: 36.1% [activator] | 
O=C(Nc1ccccc1)C1=C[C@H](c2coc3ccccc3c2=O)C[C@H](OCc2ccc(CO)cc2)O1 |  | inconclusive [activator, partial curve]
Cc1cccc(NC(=O)CSCC(=O)Nc2cc(Cl)ccc2N2CCN(C)CC2)c1 |  | inconclusive [inhibitor, partial curve]

Reference: PubChem BioAssay AID2101 (National Center for Advancing Translational Sciences (NCATS), 2009)
